Out of some 320,000 compounds screened, about 200 (0.062%) were called active. This list was built around the results that the source calls inconclusive (neither active nor inactive); the mix of calls is not that of the screen. The call rests on the fitted dose curve; in most records, active means well fitted activation curve with a large enough effect; inconclusive means small, poorly fitted or top-dose-only effect; inactive means no such curve, though single readings can be large or run the other way. Potencies of inconclusive entries are left out as doubtful fits.
Experiment: qHTS assay for re-activators of p53 using a Luc reporter; further: nearly all actives have a fitted effect of over 45% in size
Details: H1299 p53-A138V BP100-luciferase reporter, luminescence, 24 h; series mostly up to 92.2 µM
Outline: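 p53-null H1299 cells stably carrying temperature-sensitive p53-A138V and a BP100-luciferase reporter were pinned with compounds (4-point, 1:5 series) and held 24 hrs at 37 deg C. Luminescence was read 10 min after detection reagent.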
Potency means the concentration at half of the fitted maximal effect; tags describe the fitted curve by direction and shape.

| Compound | Potency |
| --- | --- |
| C/C(=N\NC(=O)c1cccc(F)c1)c1ccc(NC(=O)Cc2ccccc2)cc1 | inconclusive [activator, full curve, poor fit] |
| COc1ccc(C(=O)COc2ccccc2C#N)cc1 | active: 31.6 µM |
| CCc1nccn1CCC(=O)N1CCCC(N2CCN(c3cccc(Cl)c3)CC2)C1 (stereo not given) | inconclusive [activator, partial curve, poor fit] |
| Cc1ccccc1OCC(=O)Nc1ccc2c(c1)Cc1ccccc1-2 | inactive |
| COc1ccccc1CCN1C(=S)NC(C)(C)CC1(C)O (stereo not given) | inactive |
| O=C(NCCc1ccccc1)c1c(F)c(F)c(F)c(F)c1F | inconclusive [activator, single point] |
| CC(=N/O)/C(C)=N\NC(=O)c1ccccn1 | inactive |
| N#CC1=C(N)SC(N)=C(C#N)C1Cc1ccccc1 | inactive |
| Cc1cccc2cc(CN(C(=S)NCC(C)C)C3CCCC3)c(=O)[nH]c12 | inactive |
| CN(C)Cc1c(C(=O)Nc2ccccc2)[nH]c2ccccc12 | inconclusive [activator, full curve, poor fit] |
| O=C(CSc1nc(C2CC2)nc2ccccc12)N1c2ccccc2Sc2ccc(C(F)(F)F)cc21 | inactive |
| COC(=O)CCC(=O)COc1ccccc1C#N | inconclusive [activator, partial curve, poor fit] |
| CC(/C=C/c1ccccc1F)=N\NC(=O)c1cccc(F)c1 | inactive |
| CC(C)OC(=O)c1cccc(NC(=O)c2ccccc2)c1 | inconclusive [activator, partial curve, poor fit] |
| CC1(C)CCCN(Cc2c(O)ccc3c(=O)c(-c4nc5ccccc5s4)c(N)oc23)C1 | inactive |
| CC(=O)Oc1cccc(NC(=O)c2ccc3c(c2)C(=O)N(CC(C)C)C3=O)c1 | inconclusive [activator, full curve, poor fit] |
| Cc1cc(C(=O)CNCc2ccco2)c(C)n1-c1ccc(F)cc1 | inconclusive [activator, partial curve, poor fit] |
| Cc1cccc(C(=O)NNC(=O)c2ccc(O)cc2)c1 | inconclusive [activator, single point] |
| O=C(CN1CCN(C(=O)c2ccc(-c3nc4ccccc4s3)o2)CC1)Nc1ccc(F)cc1 | inconclusive [activator, full curve, poor fit] |
| Oc1c(-c2cc(-c3ccco3)[nH]n2)ccc2ccccc12 | inconclusive [activator, partial curve, poor fit] |
| CC(C)Cn1c(N)c(C(=O)COC(=O)c2cc(-c3ccco3)nc3ccccc23)c(=O)n(C)c1=O | inactive |
| CC#CC[N+](C)(C)CCCCCCCCCC | inactive |
| COc1ccc(NC(=O)CN2CCC(C)CC2)cc1 | inconclusive [activator, partial curve, poor fit] |
| CC(=O)NS(=O)(=O)c1ccc(NC(=O)c2ccccn2)cc1 | inactive |

| Compound | Potency |
| --- | --- |
| COC(=O)c1ccc(CNC(=O)c2ccc3oc(C(C)C)nc3c2)cc1 | inconclusive [activator, single point] |
| CSc1ccc(CNc2ccc(Cl)cc2)cc1 | inconclusive [activator, full curve] |
| C/C(=N/NC(=O)c1ccoc1C)c1ccc(NC(=O)C2CCCC2)cc1 | inconclusive [activator, partial curve, poor fit] |
| NC(=O)c1cc2ccc(O)cc2oc1=NCc1ccccc1 | inconclusive [activator, partial curve, poor fit] |
| COc1c2ccccc2nc2ccccc12 | inconclusive [activator, single point] |
| CC1CC(C)CN(S(=O)(=O)c2ccc3c(c2)oc(=O)n3CC(=O)NCCCOC(C)C)C1 (stereo not given) | inactive |
| COc1ccc(-c2cn(Cc3ccc(C(=O)NCc4ccc(C)cc4)cc3)c(C(C)N)n2)cc1 (stereo not given) | inconclusive [activator, single point] |
| O=C(Nc1nc2cc3c(cc2s1)OCO3)C1CCCCC1 | inconclusive [activator, partial curve, poor fit] |
| CCOC(=O)N1CCN(S(=O)(=O)c2ccc(C(=O)Nc3sc4c(c3C(=O)OC)CCN(C)C4)cc2)CC1 | inconclusive [activator, single point] |
| CCCn1nnc(NC(=S)NC(=O)C(C)(C)C)n1 | inactive |
| COC(=O)c1ccc(NS(=O)(=O)c2ccc(SC)cc2)cc1 | inconclusive [activator, single point] |
| CCCN1C2=NCCN2c2ccccc21 | inactive |
| O=C(CCS(=O)(=O)c1ccccc1)Nc1nc2ccc(F)cc2s1 | inconclusive [activator, partial curve, poor fit] |
| CCN(CC)C1=CC(=O)OC12CCCCC2 | inconclusive [activator, single point] |
| CCOC(=O)CNC(=O)N1CCCC(N(C)CCc2ccccc2)C1 (stereo not given) | inconclusive [activator, single point] |
| Cc1ccc(NC(=O)c2ccc(Nc3ccccc3F)nc2)cc1 | inconclusive [activator, partial curve, poor fit] |
| COc1ccccc1CC(=O)N(CCC1=CCCCC1)c1c(N)n(Cc2ccccc2)c(=O)[nH]c1=O | inactive |
| CC(C)(C)C(=O)c1sc(Nc2ccccc2)nc1N | inconclusive [activator, partial curve, poor fit] |
| Cc1cccc(C)c1OCc1cc(C(=O)N2CCC(c3ccncc3)CC2)no1 | inconclusive [activator, partial curve, poor fit] |
| NNC(=O)c1ccc(-c2cccc([N+](=O)[O-])c2)o1 | inactive |
| COc1ccc(C(=O)Nc2cc(OC)ccc2OC)cc1 | inconclusive [activator, single point] |
| O=C(C1CCCN(c2ncnc3c2nc2n3CCCCC2)C1)N1CCN(c2cccc(Cl)c2)CC1 (stereo not given) | inactive |
| CC(C)C1Oc2ccccc2C(=O)N(CC(=O)c2ccc3c(c2)OCCO3)C1=O (stereo not given) | inconclusive [activator, partial curve, poor fit] |
| CC1CC2=C(NC(=S)NC2c2ccccc2F)/C(=C/c2ccccc2F)C1 (stereo not given) | inconclusive [activator, single point] |

| Compound | Potency |
| --- | --- |
| O=c1sc(/C=N/Nc2ccccc2)c(Cl)n1Cc1ccccc1 | inconclusive [activator, partial curve, poor fit] |
| Cc1nc(SCc2nc3c(O)cccc3[nH]2)c2oc3ccccc3c2n1 | inactive |
| Cc1ccc(OCc2nnc(SCC(=O)c3ccccc3)n2-c2ccccc2)cc1 | inconclusive [activator, single point] |
| COCC1CCN(C(=O)c2cc(COc3cc(C)c(Cl)c(C)c3)on2)C1 (stereo not given) | inconclusive [activator, partial curve, poor fit] |
| O=S(=O)(Nc1ccccc1OC(F)F)c1ccc(S(=O)(=O)N2CCCC2)cc1 | inactive |
| Cc1ccc(NC(=O)C(C)N2CCOCC2)c(C(=O)c2ccccc2)c1 (stereo not given) | inactive |
| CN(C(=O)c1cc(-n2cnnc2)ccc1Cl)c1ccccc1 | inconclusive [activator, full curve, poor fit] |
| Cc1ccc(-n2nc(C)c(NC(=O)CCl)c2C)cc1 | inactive |
| COc1ccc(NC(=S)NC(=O)CC(C)C)c(OC)c1 | inactive |
| CC(C)c1nnc(NC(=O)CCS(=O)(=O)c2ccccc2)s1 | inconclusive [activator, single point] |
| COc1ccc(-c2nnc(SCc3nc4ccccc4s3)n2C(C)C)cc1 | inconclusive [activator, partial curve, poor fit] |
| COc1cccc(C(=O)O/N=C(\N)c2ccc(C)cc2)c1 | inconclusive [activator, full curve, poor fit] |
| Cc1ccccc1-c1nsc(SCC(=O)Nc2ccc3c(c2)OCO3)n1 | inconclusive [activator, partial curve, poor fit] |
| C/C=C(\C)C(=O)OC1c2c(ccc3ccc(=O)oc23)OC(C)(C)C1OC(C)=O (stereo not given) | inactive |
| CCN(CC)C(=O)CSc1nnc(-c2ccco2)o1 | inconclusive [activator, partial curve, poor fit] |
| Cc1ccc(C(C)C)cc1OCC(=O)N/N=C/c1ccc2c(c1)OCCO2 | inconclusive [activator, partial curve, poor fit] |
| O=C(O)CC/C(=N/NC(=O)c1cccs1)c1ccccc1 | inconclusive [activator, partial curve, poor fit] |
| COc1ccc(OCc2cccc(C(=O)NN)c2)cc1 | inconclusive [activator, partial curve, poor fit] |
| O=C(O)C1C2C=CC(O2)C1C(=O)Nc1ccc2c(c1)OCCO2 (stereo not given) | inconclusive [activator, partial curve, poor fit] |
| CCOC(=O)c1ccc(N=NN(C)C)cc1 | inactive |
| N#Cc1cc2cc3c(cc2nc1SCC(=O)N1CCOCC1)OCO3 | inconclusive [activator, full curve, poor fit] |
| CS(=O)(=O)N1CCc2nc(-c3ccccc3)sc2C1 | inconclusive [activator, partial curve, poor fit] |

From PubChem BioAssay AID504706 (National Center for Advancing Translational Sciences (NCATS), 2011)
